Hit rate of the full screen: of about 300,000 compounds, about 1,200 (0.4%) were called active. Inconclusive results, whose numbers are uncertain, are shown with a selection of clear calls. The call rests on the fitted dose curve; in most records, active means well fitted inhibition curve with a large enough effect; inconclusive means small, poorly fitted or top-dose-only effect, or another doubt; inactive means no such curve, though single readings can be large or run the other way. Where the call is inconclusive, the potency comes from a doubtful curve fit.
target: Lysosomal alpha-glucosidase (Homo sapiens) (UniProt P10253); assay: qHTS Assay for Inhibitors and Activators of Human alpha-Glucosidase Cleavage of Glycogen; details: recombinant GAA, glycogen substrate, Amplex Red glucose oxidase fluorescence; series mostly up to 76.4 µM
Summary of the method: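 Recombinant human enzyme (4 nM); glycogen substrate; 37 C, 40 min, pH 5.0. Readout: coupled glucose oxidase/Amplex Red fluorescence.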
Potency means the concentration at half of the fitted maximal effect.

Row | SMILES | Potency
1 | Cc1csc(NC(=O)NC2(C(F)(F)F)Oc3ccccc3O2)n1 | active: 8.84 µM
2 | S=c1[nH]nc(COc2ccccc2)n1C1CCCCC1 | inconclusive: 39.8 µM [inhibitor, single point]
3 | O=C(NC(=S)NNS(=O)(=O)c1ccc(Cl)cc1)c1cccnc1 | inconclusive: 22.2 µM [inhibitor, partial curve]
4 | O=C(CN1CCC(NC(=O)Nc2ccccc2)CC1)Nc1ccc([N+](=O)[O-])cc1 | inactive
5 | CCOc1ccc(N(CC)S(=O)(=O)N2CCCC(C(=O)Nc3ccc(C(C)=O)cc3)C2)cc1 (stereo not given) | inactive
6 | c1ccc(C2=NNC(=NC3CC3)SC2)cc1 | inactive
7 | C/C(=N\Nc1nccnc1Cl)c1ccc(Cl)c(Cl)c1 | inconclusive: 50.1 µM [inhibitor, single point]
8 | CCCC(=O)Nc1nc(C)c(-c2csc(Nc3ccccc3OC)n2)s1 | inconclusive: 39.5 µM [inhibitor, single point]
9 | CCOc1ccc(-c2cc(C(=O)Oc3ccc(C#N)cc3)no2)cc1 | inactive
10 | COc1ccc(/C=C/c2nc(C#N)c(NCc3ccc(F)cc3)o2)cc1OC | inconclusive: 31.6 µM [inhibitor, single point]
11 | O=c1oc2ccccc2nc1/C=C(\O)c1ccc(Br)cc1 | inconclusive: 14.1 µM [inhibitor, partial curve]
12 | COc1cc(OC)c(C2Nc3cccc4cccc(c34)N2)c(OC)c1 | inconclusive: 50.1 µM [inhibitor, single point]
13 | CC(=O)N1CCN(c2ccc(NCc3ccc(C)s3)cc2)CC1 | active: 15.7 µM
14 | COc1ccc(Nc2nc(C(=O)N(CCO)Cc3ccccc3)cs2)cc1 | inconclusive: 31.4 µM [inhibitor, single point]
15 | N#C/C(=N/Nc1ccc(OC(F)(F)F)cc1)C(N)=S | inconclusive: 20 µM [inhibitor, partial curve]
16 | N#CCC(=N)N1CCN(c2ccc(F)cc2)CC1 | inconclusive: 31.6 µM [activator, single point]
17 | COc1ccc(NC(=S)NCCc2ccc(Cl)cc2)c(OC)c1 | inconclusive: 39.5 µM [inhibitor, partial curve, poor fit]
18 | O=C(c1cccc(C(F)(F)F)c1)C1CCCN(C(=O)CN2CCCC2=O)C1 (stereo not given) | inconclusive: 28.2 µM [inhibitor, partial curve]
19 | CC1CCN(C(=O)CSc2nnc3c(n2)[nH]c2ccccc23)CC1 | inactive
20 | Cc1ccc(NNC(=O)CCc2ccccc2)c(C)c1 | inconclusive: 50.1 µM [inhibitor, single point]

From PubChem BioAssay AID2100 (National Center for Advancing Translational Sciences (NCATS), 2009)
